Laboratory results published in PMC12136788.
This is one part of the list.

T1: UNK ZnF1-6 (called full-length) (human, UniProt Q9C0B0 30-357)
T1 sequence: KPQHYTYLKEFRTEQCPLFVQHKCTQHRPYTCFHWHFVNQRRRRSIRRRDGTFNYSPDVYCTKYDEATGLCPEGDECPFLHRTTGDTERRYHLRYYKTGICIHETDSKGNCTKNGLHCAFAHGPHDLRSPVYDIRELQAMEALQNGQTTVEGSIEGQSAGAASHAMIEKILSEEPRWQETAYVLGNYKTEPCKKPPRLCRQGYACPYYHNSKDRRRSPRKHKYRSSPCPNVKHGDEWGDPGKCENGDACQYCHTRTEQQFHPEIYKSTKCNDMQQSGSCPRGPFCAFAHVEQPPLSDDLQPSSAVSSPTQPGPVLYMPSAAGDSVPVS

B1: chr1:93888438:93888539:-|3pUTR|ENSG00000023909|msi1|FALSE|unique (ssRNA)
RNA: GGGAGUUCUACAGUCCGACGAUCAGAUAUUUUUCCUGUCAUUGAUGAGAUAUAUCAGAGUAACUGGAGUAGCUGGGAUUUACUAGUAGUGUAAAUAAAAUUCACUCUUCAAUACAUGAAUGGAAACUUAAAUUUUUUUUUAUGCAACAGAGGAUUGAGCAUCA
B2: chr2:106801599:106806677:-|three_prime_utr|ENSG00000144057|control|control|control (ssRNA)
RNA: GGGAGUUCUACAGUCCGACGAUCAAUCAAUGUGCAAUAAGGUACUACUGUUGUACUCAAAGUCACAAAAGAAUACUUGAAGAUAGAUUUUAGACAGUGUAGUUUUGAGUCUUUAAACAGUAAUUUAGUGGUGGUCAUGAUAAUCAACAGAGGAUUGAGCAUCA
B3: chr22:39520512:39520623:+|5pUTR|ENSG00000128272|unk|total|mutant (ssRNA)
RNA: GGGAGUUCUACAGUCCGACGAUCUCUAUAAAGGGCCGGCGGGCGGCCACGGCAGCCAUUUCUACUUUGCCCGCCCACAGAUGCCGUUUUCUCUGCGCGUGUGCGUUUUCCCUCCUCCCCGCCCUCAGGGUCCACGGCCACCAUCAACAGAGGAUUGAGCAUCA
B4: chr11:103061782:103061883:-|3pUTR|ENSG00000137692|unk|total|mutant (ssRNA)
RNA: GGGAGUUCUACAGUCCGACGAUCAAGACUGUUGGCCUUGACUUCUGGGAUAAUGAUUUGCUGAUGCAGCUAAUAAACAUUUCCCGGUAUUGGAAAAAUGCUCCUACUUUCCGCUCUGGGUUUCUAUAAAAGCUGCCAAGGUCUCAACAGAGGAUUGAGCAUCA
B5: chr8:58815337:58815724:-|CDS|ENSG00000198846|control|control|control (ssRNA)
RNA: GGGAGUUCUACAGUCCGACGAUCUAGUCUCCCCAGGAACAUAGCCCCCAAGCCGAAUAACCAAAUGCCAGUGACUGUCUCUAUAGCAAACAUGGCUGUGUCCCCUCCUCCUCCCCUCCAGAUCAGCCCGCCUCUUCACCAGCACAACAGAGGAUUGAGCAUCA
B6: ENSG00000069329:stop:overlap|stop_codon|ENSG00000069329|stop_codon|NA|stop_codon (ssRNA)
RNA: GGGAGUUCUACAGUCCGACGAUCUGGAGAAGGGGCCCCACAGACCGUUCGGGAUUAAGACCAGCCCGAUUUGGCCUGCGGGAUAGGGGACAGCAGGAGGAAGGCCGCGGGCAGGCUGAUCCGGGCCGGGGUGGGCGGCGGCUCCAACAGAGGAUUGAGCAUCA
B7: ENSG00000112208:stop:overlap|stop_codon|ENSG00000112208|stop_codon|NA|stop_codon (ssRNA)
RNA: GGGAGUUCUACAGUCCGACGAUCAGCAUUCUAAAGGAGCUGGUUCCAAAACUCUGCAACAAAAUGCUGAAAGCAGAUUCAAUUAGUCUUCAAACCUAAGAGCAUUUACACAAUACACAAGGUGUAAAAAUGAUAAAAUACUAUCAACAGAGGAUUGAGCAUCA
B8: chr11:92891788:92891889:+|3pUTR|ENSG00000165323|msi1|total|mutant (ssRNA)
RNA: GGGAGUUCUACAGUCCGACGAUCAUGAGGCUUUUUGGGUUCCAUUUGGUGGGUGGGGGAGGAAGUUAAAGUUGUUUGAACAUCCGAAAGAAUGUGAUUAUCUGGUUGGUUUUGUGUUUUCUGGUAAAUAUUCCAGUUGGUAAACAACAGAGGAUUGAGCAUCA
B9: chr17:30468017:30468118:+|3pUTR|ENSG00000108582|unk|total|mutant (ssRNA)
RNA: GGGAGUUCUACAGUCCGACGAUCGCUAAAAUUUUGGGGAUAUGAUUUGGGUCUUUGAUUAAUGUCAGCUGAACUUGGAUUUCCCGUUCAUGAAGAAAUCUCUCCCAAUACCCAUUUAUCCUAUUUUCCGCAAUAAUUCGUUAACAACAGAGGAUUGAGCAUCA
B10: chr15:34852525:34852627:-|3pUTR|ENSG00000021776|unk|total|mutant (ssRNA)
RNA: GGGAGUUCUACAGUCCGACGAUCCCCGCAUUUCCCAAACUUAUCCGAGCAUAAAACUUUGUUUUUGUUUUUUUUUAAUAAGACCGGCCGCUAUUUCCUCCGAACACAGUUUGGGAAACUUUUUGUUCAUUUGUUUUAAUAAGACAACAGAGGAUUGAGCAUCA
B11: chr17:79834786:79834887:-|CDS|ENSG00000141582|unk|total|mutant (ssRNA)
RNA: GGGAGUUCUACAGUCCGACGAUCAAUGAUGCCGGCCCCCAAAGAGGCUGUGACGGGCAACGGGAUUGGGGGCAAGAUGAAGACCGUCAAGAACAAGAACAAGAACGGACGCAUCGUGAUCGUGAUGAGCAAAUACAUGGAGAACAACAGAGGAUUGAGCAUCA
B12: ENSG00000107863:be:win_4751|CDS|ENSG00000107863|bound_else_gene|NA|bound_elsewhere_windowed (ssRNA)
RNA: GGGAGUUCUACAGUCCGACGAUCCCUCAGAUUAUUCCACCACAUCGUCUGCUACAUACUUGACUAGCCUGGACUCCAGUCGACUGAGCCCUGAGGUGCAAUCCGUGGCAGAGAGCAAGGGGGACGAGGCAGAUGACGAGAGAACAACAGAGGAUUGAGCAUCA
B13: chr19:35623609:35623710:+|3pUTR|ENSG00000249115|unk|total|mutant (ssRNA)
RNA: GGGAGUUCUACAGUCCGACGAUCGCCUUCCCGUUUGUACCGUUUCUUUUUUUACAUGUAAAUCAGCCAUUUGGAAUUUAUCCCCGCACAUGGAUCCAAUUUUGUCUUAUUUUACAUAUAUCCCCGCCGCACUUACUGAAAUUCCAACAGAGGAUUGAGCAUCA
B14: chr5:41382290:41382405:-|CDS|ENSG00000182836|unk|FALSE|unique (ssRNA)
RNA: GGGAGUUCUACAGUCCGACGAUCGGCCAAAAAGCUCAUGCGGAAAUGGUUAGCCACUCAGACAAUGAAUUUUACUGGCCAGCUAGGAGCUGGAAUUCGUUAUUUUGAUCUUCGAAUUUCCACCAAGCCCAGAGACCCCGACAACAACAGAGGAUUGAGCAUCA
B15: chr6:63788104:63788249:-|CDS|ENSG00000188107|control|control|control (ssRNA)
RNA: GGGAGUUCUACAGUCCGACGAUCUAAAUCCAUUAUCGCCCCAGGAAGACUGGUUGGUCUCAAUGUCUUCAGUCAGUUUUAUGUAGGUGGCUACAGUGAAUACACUCCAGAUCUCUUACCAAAUGGAGCAGAUUUUAAAAAUGGCAACAGAGGAUUGAGCAUCA
B16: chr11:36273890:36273991:-|3pUTR|ENSG00000110442|msi1|total|mutant (ssRNA)
RNA: GGGAGUUCUACAGUCCGACGAUCGGUGAAGAAGUGGGAAUAAUUGGAACUAAACAACAGUUCUAAAACUUCCAUGAUUUUUGCCGCUUCUUUUGUCCCCAAGUUGAAGCUUUUGGCCAGUACCUUCUCCCGUUUUUAAAGAUGCAACAGAGGAUUGAGCAUCA
B17: chr8:103442975:103443076:+|3pUTR|ENSG00000164934|msi1|total|mutant (ssRNA)
RNA: GGGAGUUCUACAGUCCGACGAUCGGACCCGAUUAAUUGCAAACAUUUCCGUUAUAUGUGCCGAGCUUUAUUGUUACUCCUUUCCGCUACCCUGAAAAAUGAUCCUUAAAGGUGGCCCCGUUGGUAAGACUGUUUUAUCCUUAACAACAGAGGAUUGAGCAUCA
B18: chr7:151395775:151396196:-|CDS|ENSG00000187260|control|control|control (ssRNA)
RNA: GGGAGUUCUACAGUCCGACGAUCCAGCGGCUGCUGCCACCAGACGCUGCGGGGCCACACGGGUGCAGUGCUGUGCCUAGUGCUAGACACGCCCGGCCACACGGCCUUCACAGGCAGCACCGACGCCACCAUCCGUGCCUGGGACAACAGAGGAUUGAGCAUCA
B19: chr5:148442723:148442824:+|3pUTR|ENSG00000145868|unk|total|mutant (ssRNA)
RNA: GGGAGUUCUACAGUCCGACGAUCUUAUGAGCUUAAAAAAAAGUGAGUUUGAGAGGGAAAUGGAAAAGUUUCCAGAGUAUUUCCCGUAAUUUAUUUCCACAUUGAAUUGUGUAUAUGCUUUAUCUUGAAUAUAAAAUAAAAGUUCAACAGAGGAUUGAGCAUCA
B20: ENSG00000147256:stop:overlap|stop_codon|ENSG00000147256|stop_codon|NA|stop_codon (ssRNA)
RNA: GGGAGUUCUACAGUCCGACGAUCCAUUGCUCCGUGUGCCCCGGGAGAAGGAGGCCAAAACUGGCGUCAGCUACUUCUUUCCUUAGAUGUUUUUCCUUCUAUAAGGUGCCAGACAGGGGAAAAGGGUGGGGGUACAUCUGGGAUCAACAGAGGAUUGAGCAUCA
B21: chr9:88477803:88477904:+|3pUTR|ENSG00000106723|msi1|FALSE|bound_elsewhere (ssRNA)
RNA: GGGAGUUCUACAGUCCGACGAUCGACAAUACAAGACAUGAAUCUAUGUAUAAAAUUUAUCGGCCUUUCUCAUUUACCUGCUCUAGUAUUAUUGUAUUGUGUGUGCGUGCGUGUGUGAUGUCAGGCUGCCACGUAAAACUUCAGCAACAGAGGAUUGAGCAUCA
B22: chr13:48512728:48512895:-|CDS|ENSG00000136161|control|control|control (ssRNA)
RNA: GGGAGUUCUACAGUCCGACGAUCCUUUACCUGGGGUCAUAAUGCUUAUAGCCAGCUGGGCAAUGGGACAACUAAUCAUGGUUUAGUGCCCUGUCAUAUCUCUACUAAUCUGUCAAACAAACAAGUCAUUGAAGUUGCCUGUGGCAACAGAGGAUUGAGCAUCA

target: T1, UNK ZnF1-6 (called full-length); experiment: nsRBNS (natural sequence RNA bind-n-seq); RBNS binding buffer (assumed for nsRBNS): 25 mM Tris pH 7.5, 150 mM KCl, 3 mM MgCl2, 0.01% Triton X-100, 500 ug/ml BSA, 20 U/ml SUPERase-In, 4 C; UNK is unkempt and MSI1 is Musashi-1; names of the RNAs are library labels; protein concentration not given here; high values mean tight binding

Binder | binding signal
B1 | 1.25 enrichment R
B2 | 0.614 enrichment R
B3 | 0.941 enrichment R
B4 | 0.482 enrichment R
B5 | 1.56 enrichment R
B6 | 1.09 enrichment R
B7 | 0.548 enrichment R
B8 | 0.882 enrichment R
B9 | 0.421 enrichment R
B10 | 0.868 enrichment R
B11 | 0.734 enrichment R
B12 | 0.755 enrichment R
B13 | 0.718 enrichment R
B14 | 0.472 enrichment R
B15 | 0.369 enrichment R
B16 | 0.341 enrichment R
B17 | 0.233 enrichment R
B18 | 0.529 enrichment R
B19 | 0.741 enrichment R
B20 | 0.84 enrichment R
B21 | 1.09 enrichment R
B22 | 0.616 enrichment R
